# ± gives the standard deviation of the averaged measurements. In all, about 33,000 sequences were measured (“E-score (dimensionless, -0.5 to 0.5)”: median about -0.046, highest 2% from about 0.36 on). The list shows a part of the results.
# System: T1, SpTbr T-box DNA-binding domain (GST fusion)
# T1 sequence: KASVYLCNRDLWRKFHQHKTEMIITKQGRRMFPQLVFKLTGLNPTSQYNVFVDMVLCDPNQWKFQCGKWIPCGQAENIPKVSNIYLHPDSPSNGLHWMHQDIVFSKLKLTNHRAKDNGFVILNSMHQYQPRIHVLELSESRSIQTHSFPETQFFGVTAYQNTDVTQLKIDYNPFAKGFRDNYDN
# Assay: PBM E-score of 8-mer (E-score (dimensionless, -0.5 to 0.5)); Tbr is Tbrain of the sea star Patiria miniata (Pm) or the sea urchin Strongylocentrotus purpuratus (Sp); higher = stronger binding preference; most listed sequences are background and not binding sites
# Settings: the construct has about 5 more residues each side
# In short: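 Using the Universal PBM Analysis Suite, every ungapped 8-mer received an enrichment E-score averaged over duplicate arrays. Probe intensities came from double-stranded Universal Agilent oligonucleotide arrays incubated with 200 nM GST-fused Tbr T-box DNA-binding domain in PBS (pH 7.5). That protein was expressed in BL21 E. coli at 20 °C and purified by glutathione affinity chromatography.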
row,Sequence,PBM E-score of 8-mer
1,CCGGGAGC,-0.171 ± 0.0072
2,CCAAAGTA,-0.146 ± 0.011
3,AGGCTGAG,-0.0453 ± 0.037
4,CAAACCAC,-0.0733 ± 0.072
5,ACATCAAT,-0.0979 ± 0.057
6,GAAGTTAA,0.0639 ± 0.011
7,AATAACAC,0.294 ± 0.062
8,GACCAAGC,-0.148 ± 0.036
9,AAACCCAG,-0.0988 ± 0.024
10,ACATCAAC,-0.0504 ± 0.083
11,CCACCAAG,-0.145 ± 0.076
12,GGACAAAC,-0.0669 ± 0.0088
13,ATCAATGC,-0.161 ± 0.033
14,AACATCCA,0.0221 ± 0.013
15,GAAAAGGA,-0.163 ± 0.063
16,ATAGCCAG,-0.198 ± 0.013
17,CCTGATCG,-0.0377 ± 0.024
18,TCCTGCCA,0.107 ± 0.03
19,GAGCTAAA,-0.0145 ± 0.028
20,AAATTGAT,0.0894 ± 0.12
21,ATTTGTGA,0.181 ± 0.085
22,ATGGAAAA,-0.23 ± 0.058

row,Sequence,PBM E-score of 8-mer
1,ACCTCCAA,-0.00451 ± 0.035
2,ACGGGTCA,0.0479 ± 0.043
3,AAAGCTTT,-0.237 ± 0.075
4,AAAACAGT,-0.113 ± 0.035
5,ACAGCCCG,-0.0215 ± 0.04
6,ATAGTCTC,-0.00177 ± 0.0083
7,ACTCAGAC,0.0611 ± 0.018
8,AGTACGGA,-0.164 ± 0.002
9,AGTCTGAA,-0.149 ± 0.056
10,ACGCCTTG,0.325 ± 0.024
11,AGAGAGAA,0.0259 ± 0.048
12,AAAAGGCC,-0.103 ± 0.0052
13,CTGATGGA,-0.181 ± 0.036
14,CAATAAAA,-0.0938 ± 0.0058
15,CCGGCTGC,-0.122 ± 0.055
16,AATCTCTG,-0.0963 ± 0.053
17,AGAGGAAA,0.0297 ± 0.12
18,CTGTAGAA,-0.1531 ± 0.0011
19,GAGTCAGA,-0.221 ± 0.018
20,AACTCCGA,-0.0892 ± 0.0098
21,ACTAACAG,0.1931 ± 0.00053
22,CCAATTAA,0.00248 ± 0.048

row,Sequence,PBM E-score of 8-mer
1,AAAAACGG,-0.0287 ± 0.032
2,AGTGTTAA,0.436 ± 0.021
3,CCGTTATA,-0.0959 ± 0.051
4,ACACAGAG,0.0256 ± 0.037
5,AGGACAAT,-0.146 ± 0.055
6,ATGCATTA,-0.0389 ± 0.011
7,GATAGCAA,0.156 ± 0.0049
8,ACTGAGCC,-0.303 ± 0.016
9,CAGAGAGA,-0.036 ± 0.025
10,ATAACTGG,-0.102 ± 0.036
11,GAAGGAGA,-0.273 ± 0.03
12,AAATCCAA,-0.228 ± 0.015
13,GGAGAACA,-0.121 ± 0.018
14,CAAACCTG,0.00364 ± 0.022
15,CTAGCAAG,-0.0866 ± 0.056
16,ACAATCCG,-0.0266 ± 0.0027
17,GGTAAAAC,-0.154 ± 0.014
18,ATGGAGGA,-0.196 ± 0.022
19,CTGAGCGA,-0.0903 ± 0.098
20,AGGGCGCA,-0.0499 ± 0.024
21,GAGGCCTA,-0.113 ± 0.082
22,CACGTATC,0.134 ± 0.024

row,Sequence,PBM E-score of 8-mer
1,CAGGGTCA,-0.211 ± 0.069
2,CAAGGTGG,0.311 ± 0.015
3,CACAACGA,0.0767 ± 0.036
4,CCTTGTGA,0.145 ± 0.0077
5,CGCTGCCC,-0.0176 ± 0.073
6,CGGTTTCA,0.132 ± 0.052
7,AGCTAAGG,-0.213 ± 0.0096
8,ACCACCAC,0.0481 ± 0.094
9,AGAAATTC,-0.141 ± 0.097
10,AAATCGCA,0.285 ± 0.0084
11,CAGTGCCG,-0.083 ± 0.054
12,GCAGATTA,-0.0967 ± 0.028
13,AATTATTC,-0.121 ± 0.012
14,CGGGGTAG,-0.252 ± 0.064
15,AAAAGTAC,-0.218 ± 0.1
16,GGTTAGTA,-0.2678 ± 0.0019
17,ATGTTACA,0.0673 ± 0.018
18,CCAGATTA,-0.237 ± 0.06
19,ACTAGTTC,0.0744 ± 0.0059
20,ACCCCTTG,-0.0283 ± 0.033
21,ATATACAG,-0.0391 ± 0.012
22,GCGAACGC,0.3749 ± 0.0018

row,Sequence,PBM E-score of 8-mer
1,CAGCTTGC,0.11956 ± 5.7e-05
2,CACTGTTC,0.0947 ± 0.049
3,TAAGTTCA,-0.115 ± 0.032
4,CTAGCAGC,0.0341 ± 0.05
5,GCATCGTA,-0.118 ± 0.072
6,AGTTCGGG,0.0206 ± 0.037
7,GCAGTCTA,-0.224 ± 0.041
8,ATCTGCAG,-0.0713 ± 0.029
9,GCAGCTAA,-0.0128 ± 0.014
10,GAAATTAC,-0.0057 ± 0.029
11,CGCAGTAA,0.0214 ± 0.042
12,CGCGACCG,0.29 ± 0.031
13,GAGAGCGC,0.0438 ± 0.017
14,TCGACTCA,-0.0647 ± 0.016
15,CAAGCCGG,-0.31 ± 0.11
16,ACGCCTAT,0.33 ± 0.0036
17,AAGCTTTC,-0.0812 ± 0.024
18,TCAGCAAA,-0.173 ± 0.0059
19,ATTTCCTA,-0.0922 ± 0.049
20,AAGTTTCT,0.0712 ± 0.037
21,ATCCGTCA,0.0137 ± 0.11

# Reference: the supplement of paper PMC4166925
